# ± gives the standard deviation. The entries are a selection whose mix differs from that of the whole data set.
# System: MIWI (PIWIL1) piRISC loaded with piRNA #1 (30 nt)
# Assay: pre-steady-state target cleavage rate (min^-1); MIWI and MILI are mouse PIWI proteins and EfPiwi is from a freshwater sponge; tags in brackets are library labels; higher = faster piRNA-guided slicing of the target
# Settings: guide: piRNA #1 5'p-UGAGGUAGUAGGUUGUAUAGUAUCCAGAGG; auxiliary factor: 500 nM mouse GTSF1
# Method in brief: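 Active affinity-purified piRISC carrying one synthetic guide (1 nM) was mixed with a transcribed, DNA-blocked target RNA library […] in HEPES–potassium acetate buffer at 33 °C for 0–8 or 0–960 min, with or without 500 nM GTSF1 partner protein. Uncleaved targets were then sequenced and normalised to depth and to weakly complementary targets. Three trials were pooled, and k3 was capped at 0.0001 min^-1. A burst-and-steady-state fit was applied to obtain the pre-steady-state cleavage rate.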
# 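Further: 1 nM active piRISC with 0.1 nM target library at 33 °C single turnover.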
row,Sequence,pre-steady-state target cleavage rate
1,GGACUGGGAUACUAUACAACCUACUACCUCA,1.81 ± 0.11
2,GGAGACCAUACUAUUGAACCUACUACCUCA,0.413 ± 0.037
3,GGAGACCAUUCUAUACAACCUACUAGCUCA,0.64 ± 0.064
4,CCUGUGGAUACUAUACAACCUACUACCUGA,0.787 ± 0.15
5,GGAGACCUAUGUAUACAAGCUACAACCUCA,0.00496 ± 0.0015
6,GGAGACGAUUCUAUACAACCUACUACCUGA,0.741 ± 0.088
7,GGAGAGGAUACUAUACAACCUACUACUUCA,1.57 ± 0.1
8,GCUCUGGAUACUAUUACAACCUACUACCUCA,1.7 ± 0.12
9,CCUCUGGAUACUAUACAAGCUUCUACCUCA,0.196 ± 0.019
10,GCUCUGGUUACUAUACAACCUACUUCCUCA,0.472 ± 0.041
11,GGAGACGAUACUAUCAACCUACUACCUCA,1.34 ± 0.1
12,GGAGACCUAUGAUAUCAACCUCACUACCUCA,0.00553 ± 0.0012
13,GGAGACCUAUCUAUUCAACCUACUACCACA,0.138 ± 0.022
14,GGACUGGAUACUAUACAACCUACUACGUCA,0.505 ± 0.06
15,GGACUGGAUACUAUACAACGUAGUACCUCA,0.256 ± 0.067
16,GGAGACGAUUCUAUACAACCUAGUACCUCA,0.418 ± 0.053
17,GGAGACGAUAGUAUACAACCUACUAGCUCA,0.421 ± 0.067
18,GGAGACCUAUCUAUACAAGCUACAACCUCA,0.157 ± 0.018
19,GGAGACCUUACUAUACAACCUACUACCAUCA,1.28 ± 0.095
20,GGAGACCUAACAAUACAUCCUACUACCUCA,0.0512 ± 0.019

row,Sequence,pre-steady-state target cleavage rate
1,GCUCUGGAUACAAUACAACCUACUACGUCA,1.19 ± 0.07
2,GCUCUGGAUACUAUACAUCCUACUACCUGA,0.939 ± 0.11
3,GGAGACCUAUGUUUACAACCUACUACGUCA,0.00372 ± 0.0036
4,GGAGACCUAUGUAUACAACCUACUACCGCA,0.142 ± 0.022
5,CCUCUGGAUUCAAUACAACCUACUACCUCA,0.788 ± 0.091
6,GGAGAGCAUACUAUACAACCUACUACCACA,1.29 ± 0.062
7,GGAGACCUAUGAUUACAAGGAACUACCUCA,< 0.0001
8,GCUCUGGAUACUAUACAACCUAGUAGCUCA,0.317 ± 0.072
9,CCACUGGAUACUAUUCAACCUACUACCUCA,1.99 ± 0.12
10,GGAGACCUAACUAUACAUCCUUCUACCUCA,0.05 ± 0.013
11,GGAGAGCAUUCUAUACAACCUACUACCUCA,1.42 ± 0.1
12,GGAGAGGAUAGUAUACAACCUACUAGCUCA,0.0578 ± 0.013
13,CCUCUGGAUACUAUACCAACCUACUACCUCA,0.4 ± 0.073
14,GGAGACCUUACUAUACAACCCACUACCUCA,0.559 ± 0.029
15,GGACUGGUUACAAUACAACCUACUACCUCA,1.05 ± 0.13
16,CCUGUGGAUACUAUACAACCUACUACCUCA,1.86 ± 0.11
17,GGACUGGAUACUUUACAACCUACUACGUCA,0.227 ± 0.034
18,GGAGUGGAUACUUUACAUCCUACUACCUCA,1.14 ± 0.076
19,GGAGACCUAUGUAUAGAACCUACUACCACA,0.00883 ± 0.0027
20,GGUCUGGAUAGUAUUCAACCUACUACCUCA,0.768 ± 0.067

# Source: the supplement of paper PMC10338343
